In the supplement of paper PMC4604168 (melanoma cell lines):
This is one part of the list. Most values come without repeats; read them as rough.

What follows are compounds tested on SkMel30 (assay: cell count relative to DMSO control; melanoma cells; higher = more viable cells). Details: library dose: standard library concentration; 72 h.
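Also: cells treated in 1,536-well plates, then fixed and DAPI-stained, with nuclei counted from automated high-throughput microscope images.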

Structure (SMILES) | cell count
CCN(CC)CCNC(=O)c1c(C)[nH]c(/C=C2\C(=O)Nc3ccc(F)cc32)c1C [sunitinib] + CCCCCCCCCCCC1=C(O)C(=O)C=C(O)C1=O [Embelin] (first compound 2 µM, partner dose 6 µM) | 73.4%
C[C@]1(O)C[C@@H](c2nc(-c3ccc4ccc(-c5ccccc5)nc4c3)c3c(N)nccn32)C1 + O=C(Nc1ccccc1)c1cc([N+](=O)[O-])ccc1Cl [GW9662] (first compound 2 µM, partner dose 10 µM) | 85.2%
COc1cc([C@@H]2c3cc4c(cc3[C@@H](O[C@@H]3O[C@@H]5CO[C@@H](C)O[C@H]5[C@H](O)[C@H]3O)[C@H]3COC(=O)[C@H]23)OCO4)cc(OC)c1O [etoposide] + CCc1ccc(CCOc2ccc(CC3SC(=O)NC3=O)cc2)nc1 [pioglitazone] (first compound 0.1 µM, partner dose 10 µM) | 93.5%
C[C@]1(O)C[C@@H](c2nc(-c3ccc4ccc(-c5ccccc5)nc4c3)c3c(N)nccn32)C1 + O=c1cc(-c2cccc3c2Sc2ccccc2S3)oc(N2CCOCC2)c1 [KU55933] (first compound 2 µM, partner dose 5 µM) | 93.3%
C[C@]1(O)C[C@@H](c2nc(-c3ccc4ccc(-c5ccccc5)nc4c3)c3c(N)nccn32)C1 + O=C1NC(=O)/C(=C/c2ccc(-c3ccc(F)cc3O)o2)S1 [AS252424] (first compound 2 µM, partner dose 5 µM) | 96.7%
